The whole screen tested about 71,000 compounds, of which about 1,800 (2.5%) were called active. The inconclusive results got no clear call from the source; some entries with a clear call stand among them for comparison. Calls come from the whole dose curve; as a rule, active = well fitted activation curve with a large enough effect in the signal ratio, with a control signal flat (not every such curve was filed as active); inconclusive = small, poorly fitted or top-dose-only effect, or effect the other way, or a change in a side signal; inactive = flat fitted curve, though single readings scatter; the % refers to the signal ratio. A potency beside an inconclusive call is a rough fit, not a confirmed value.
Assay: Cell signaling CRE-BLA (Fsk stim); for activity change, negative = inhibition: % of control where 0% means no effect
Settings: CHO CRE-bla reporter (cAMP response element driving beta-lactamase), forskolin EC10, beta-lactamase ratio; activity change, negative = inhibition: at 38.2 µM (top of the series) unless noted
Text: NIH Molecular Libraries Screening Centers Network [MLSCN]
NIH Chemical Genomics Center [NCGC]
Assay Provider: Marshall W. Nirenberg, U.S. National heart lung & blood institute
Memories persist for different lengths of time, from seconds or minutes to a lifetime. There are two kinds of memory: short-term memory (STM) and long-term memory (LTM). STM lasts for minutes to hours, which maybe mediated by modifications of molecules involved in synaptic functions. LTM lasts for days or longer, and may be due to the formation of new synapses or restructuring of existing synapses. LTM, but not STM, requires gene transcription and synthesis of proteins. CREB (cyclic-AMP Responsive Element Binding Protein) is one of the candidates plays an important role for enhancement of some types of LTM. CREB, a family of transcription factors, regulates the transcription of genes containing cAMP Responsive Elements (CRE). CRE is a nucleotide sequence often found in the promoter regions of genes that are binding sites for CREB.
Using a beta-lactamase reporter-gene under control of cAMP responsive element, a cell-based assay [CellSensor(TM) CRE-bla CHO developed by Invitrogen Corp.] was used to measure forskolin-induced signaling. Library compounds were measured for their ability to modulate positively or negatively the action of EC10 NKH 477, a water soluble forskolin, on reporter gene activity. Compounds were screened in a titration series in 1536-well format. Positive and negative modulators were identified based on the AC50 values derived from the screening data.
NCGC Assay Protocol Summary
2000 cells/5uL in Opti-MEM medium containing 0.5% dialyzed FBS, 0.1 mM NEAA, 1 mM sodium pyruvate and 10 mM HEPES was dispensed into 1536-well plates and cells were cultured at 37 degrees Celsius overnight. […] And then the plates were incubated at 37 degrees Celsius for 3 hours. 1 uL of CCF4-dye mixture was added to each well. After incubated at room temperature for 2 hours the plates were measured on an EnVision plate reader at Excitation 405nm, Emission1=460nm and Emission 2=530nm. The %Activity was determined from the ratio of 460nm/530nm.
Keywords: NIH Roadmap, MLSCN, MLSMR, qHTS, NCGC, CRE, beta-lactamase reporter-gene assay.
Potency is the fitted concentration of half-maximal effect; tags give direction and shape of the fitted curve.

| SMILES | activity change, negative = inhibition | Potency |
| --- | --- | --- |
| O=C(Cc1ccccc1)N1CCN(C/C=C/c2ccccc2)CC1 | inconclusive: -22.4% | – |
| O=C(c1ccc(CNS(=O)(=O)c2ccccc2)cc1)N1CCC2(CC1)OCCO2 | – | inconclusive: 0.0794 µM [falling, partial curve, poor fit] |
| CCCCc1ccc2[nH]cc(CCN)c2c1 | – | inconclusive: 0.0794 µM [falling, full curve, poor fit] |
| CCCCn1c(=O)c(C(=O)Nc2ccccc2S(N)(=O)=O)c(O)c2ccccc21 | – | inconclusive: 10 µM [falling, single point] |
| Nc1ncnc2c1ncn2[C@@H]1O[C@@H](COP(=O)(O)CP(=O)(O)OP(=O)(O)O)[C@H](O)[C@@H]1O | inactive | – |
| O=P(O)(OP(=O)(O)c1ccccc1)c1ccccc1 (tested in a mixture with another compound) | inactive: -7.79% [at 7.6 µM] | – |
| O=C(O)COc1ccccc1 | inactive | – |
| COc1cccc(-c2cc(C(F)(F)F)n3nc(C(=O)N4CCC5(CC4)OCCO5)cc3n2)c1 | – | inconclusive: 10 µM [rising, single point] |
| CCOC(OCC)P(=O)(O)CCCN | inconclusive: -10.1% | – |
| ClC1=C(Cl)C2(Cl)C3C4C=CC(C4)C3C1(Cl)C2(Cl)Cl (stereo unspecified) | – | inconclusive: 1 µM [rising, full curve, poor fit] |
| CCOC(=O)C1OC1(C)c1ccccc1 (stereo unspecified) | inactive | – |
| O=C(O)CS(=O)(=O)C(c1ccccc1)c1ccccc1 | inactive: 7.51% [at 7.6 µM] | – |
| Nc1ccccc1 | inactive | – |
| C[C@@H](CO)NC(=O)[C@H]1C=C2c3cccc4[nH]cc(c34)C[C@H]2N(C)C1 | inconclusive: -18.9% | – |
| Cc1ccc(C)c(NC(=O)CSc2nnc([C@@H](N)Cc3c[nH]c4ccccc34)o2)c1 | inactive | – |
| O=S(=O)(O)/C(=C\c1ccccc1)c1ccccc1 (tested in a mixture with another compound) | – | active: 3.98 µM |
| COc1cc2c3c(c1OC)-c1cc(O)ccc1CC3NCC2 (stereo unspecified) | inactive | – |
| c1cncc([C@H]2CCCCN2)c1 | inactive | – |
| Clc1ccc(C(Cl)(Cl)Cl)cc1Cl | inactive | – |
| Nc1ccc(-c2ccc(N)c(Cl)c2)cc1Cl | inactive | – |
| CCC(=NCc1ccco1)c1c(O)n(Cc2ccccc2)c(=O)[nH]c1=O | – | inconclusive: 0.1 µM [rising, partial curve, poor fit] |
| CC1(C)CSC(Nc2ccc(F)c(Cl)c2)=N1 | inconclusive: 13.6% | – |
| COC(=O)N1CCN(C(=O)Cc2ccc(Cl)c(Cl)c2)[C@H](CN2CCCC2)C1 | inconclusive: -5.27% | – |
| C=CCOC(=O)COc1cc(C)cc2oc(=O)c3c(c12)CCC3 | – | inconclusive: 10 µM [rising, partial curve] |
| O=C(O)C1(c2ccc(Cl)cc2)CCC1 | – | inconclusive: 5.01 µM [falling, single point] |
| CCCCCn1c(=O)c(C(=O)Nc2ccncc2)c(O)c2ccccc21 | inconclusive: 4.97% [cytotoxic] | – |

| SMILES | activity change, negative = inhibition | Potency |
| --- | --- | --- |
| CC12CN3CC(C)(CN(C1)C31CCSCC1)C2=O | inconclusive: 7.14% | – |
| CCC[C@@H]1CC2=CC(=O)CC[C@]2(C)[C@@H]2CC[C@@]3(C)[C@H](CC[C@]3(O)CCC(=O)O)[C@H]12 | – | inconclusive: 25.1 µM [rising, partial curve] |
| NCCc1c[nH]c2ccccc12 | inconclusive: -8.75% | – |
| Cc1cccc(C)c1NC1=NCCCS1 | inconclusive: -5.64% | – |
| CC(=O)O/C(=C1/C[C@H]2[C@@H]3CC=C4C[C@@H](OC(C)=O)CC[C@]4(C)[C@@H]3CC[C@]2(C)C1=O)C(F)(F)F | – | inconclusive: 5.01 µM [rising, single point] |
| Cc1ccccc1CS(=O)(=O)Cc1ccc(C(=O)N2CCC3(CC2)OCCO3)o1 | inconclusive: 1.79% | – |
| CC[C@H](Oc1ccc(Cl)cc1)C(=O)OC1C[C@H]2CC[C@@H](C1)N2C (stereo partly specified) | inactive | – |
| N[C@H](CCl)C(=O)O | inactive | – |
| CC(N=Cc1c(O)[nH]c(=O)[nH]c1=O)c1ccccc1 (stereo unspecified) | inconclusive: 4.45% [at 7.6 µM] | – |
| CCCNS(=O)(=O)c1ccc(OCC(=O)N2CCN(Cc3ccc4c(c3)OCO4)CC2)cc1 | inactive | – |
| O=S1(=O)CC2(N3CCOCC3)CCCCCCC21 (stereo unspecified) | inconclusive: 20.5% | – |
| O=C(CN1C(=O)CN=C(c2ccccc2)c2ccccc21)NCc1ccco1 | – | inconclusive: 0.1 µM [falling, full curve, poor fit] |
| C/C(=C\[C@@H](N)C(=O)O)CP(=O)(O)O | inconclusive: 12.1% | – |
| Cn1c2ccccc2c2c(C(=O)N3CCC4(CC3)OCCO4)cn(C3CCCCC3)c(=O)c21 | – | inconclusive: 7.94 µM [rising, partial curve] |
| COCCOC(=O)c1c(N)n(Cc2ccc(OC)cc2)c2nc3ccccc3nc12 | – | active: 10 µM |
| CC(=O)C1=C(O)[C@@H]2[C@@H]3c4c[nH]c5cccc(c45)C[C@@H]3C(C)(C)N2C1=O | – | active: 1.26 µM |
| Nc1cccc(N=Cc2c(O)n(Cc3ccc(F)cc3)c(=O)[nH]c2=O)c1 | inactive | – |
| CN1CCC(N(C)c2nc(-c3ccccc3)nc3ccccc23)CC1 | – | inconclusive: 12.6 µM [rising, single point] |
| CC1=NN(c2ccc(S(=O)(=O)O)cc2C)C(=[OH+])[C@H]1N=Nc1cc(S(=O)(=O)O)ccc1C(=O)O.O.[Cr] | inactive: -4.43% [at 7.6 µM] | – |
| O=C(C1CC(=O)N(C2CCCCC2)C1)N1CCC2(CC1)OCCO2 (stereo unspecified) | inconclusive: 19.5% | – |
| CCOP(=O)(C#CC(C)(C)C)C(C)(O)c1ccccc1 (stereo unspecified) | inconclusive: -4.87% | – |
| C=CCn1c(O)c(C=Nc2ccc(OC)cc2C)c(=O)[nH]c1=O | inconclusive: 14.2% | – |
| NC(=NCCc1ccc(I)cc1)SCCCc1cnc[nH]1 | inconclusive: -2.05% | – |
| COc1cc2c(cc1OC)[C@@]13CCN4CC5=CCO[C@H](CC(=O)O)[C@@H]([C@H]1N2)[C@H]5C[C@H]43 | – | inconclusive: 1 µM [rising, single point] |
| O=C(CCC(=O)N1CCC2(CC1)OCCO2)Nc1nnc(C(F)(F)F)s1 | inactive | – |

Source: PubChem BioAssay AID662 (National Center for Advancing Translational Sciences (NCATS), 2007)
